Hit rate of the full screen: of about 44,000 compounds, about 340 (0.77%) were called active. About 5% were inconclusive and are not listed. The call rests on the fitted dose curve; in most records, active means well fitted inhibition curve with a large enough effect; inconclusive means small, poorly fitted or top-dose-only effect; inactive means flat fitted curve, though single readings scatter. Some of the results follow.
assay: Acumen qHTS Assay for Inhibitors of the mTORC1 Signaling Pathway in MEF (Tsc2-/-, p53-/-) Cells: Sytravon; details: phospho-rpS6 immunofluorescence/PI, 24 h; series mostly up to 38.3 µM; activity change, negative = inhibition: at the top concentration;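 further: plate controls were DMSO for no effect and rapamycin for full effect; nearly all actives have a fitted effect of over 50% in size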
Method in brief: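 Cell-based qHTS: Tsc2-/- p53-/- MEF, 24 h cpd, 37 °C; fix/perm, anti-phospho-S6 Alexa-488 + PI; Acumen 488 nm scan; pS6/PI ratio, % positive cells; rapamycin 7.5 nM = inhibition ref; PI count = viability.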

Row | SMILES | activity change, negative = inhibition
1 | CSc1nc2sc3c(c2c(=O)n1-c1ccc(C)c(Cl)c1)CCN(C(C)=O)C3 | inactive: -2.21%
2 | CCOc1ccc(CCNC(=O)c2ccc3c(c2)c(C)c(C)n3C)cc1 | inactive: -0.896%
3 | COC(=O)c1ccc(NC(=O)CSc2nc(=O)n(Cc3ccco3)c3c2CCC3)cc1 | inactive: -8.26%
4 | COc1cc(C(=O)N(Cc2ccc(C(C)C)cc2)C2CCS(=O)(=O)C2)cc(OC)c1OC (stereo not given) | inactive: -0.173%
5 | CCC(=O)N1CCc2cc(Br)cc(S(=O)(=O)NCCc3ccc(OC)c(OC)c3)c21 | inactive: -3.62%
6 | CC(=O)C1=C(OC(=O)C(C)C)c2ccccc2S(=O)(=O)N1Cc1ccccc1 | inactive: -8.99%
7 | O=C(NCCCc1nc2ccccc2n1Cc1ccccc1Cl)C1CCCCC1 | inactive: -10.6%
8 | Cc1[nH]n2c(=O)cc(-c3ccccc3Cl)nc2c1-c1ccccc1 | inactive: 1.61%
9 | CCn1c(SCc2ccccc2)nnc1-c1nonc1NC(C)=O | inactive: -12.2%
10 | Cc1cc(NC(=O)CN2C(=O)C(C)(C)c3ccccc32)ccc1Br | inactive: -9.31%
11 | CCN(C(=O)CSc1nc2ccccc2n1CC(=O)Nc1cccc(C#N)c1)c1ccccc1 | inactive: 0%
12 | Cc1ccc(CNC(=O)CC2Oc3ccccc3NC2=O)cc1 (stereo not given) | inactive: 2.49%
13 | CCOC(=O)C1CCCN(C(=O)Cn2ncc3c([nH]c4ccccc43)c2=O)C1 (stereo not given) | inactive: 3.79%
14 | COc1ccc(C(CC(=O)Nc2ccc(F)c(Cl)c2)N2Cc3ccccc3C2=O)cc1OC (stereo not given) | inactive: -8.01%
15 | Cc1ccc(N2CC3=C(C2=O)C(c2ccc(Br)cc2)NC(=O)N3C)cc1 (stereo not given) | inactive: 9.76%
16 | CC(C)c1ccc(NS(=O)(=O)c2ccc3[nH]cc(C(=O)NC4CCCC4)c(=O)c3c2)cc1 | inactive: 1.3%
17 | Cc1ccccc1CNC(=O)c1ccc(NC(=O)c2nsc3ccccc23)cc1 | inactive: 10.1%
18 | O=C(Cn1c(=O)oc2cc(S(=O)(=O)N3CCCCCC3)ccc21)Nc1cccc(C(F)(F)F)c1 | inactive: -1.11%
19 | O=C1Cc2cc(S(=O)(=O)N3CCN(c4ccccc4)CC3)ccc2N1 | inactive: -8.08%
20 | Cc1ccc(-c2nc(C(=O)NCc3ccc(Cl)cc3)c3n2CCCCC3)cc1 | inactive: 6.18%
21 | Cc1ccccc1Nc1sc(C(=O)c2ccc3c(c2)OCO3)c(N)c1S(=O)(=O)c1ccccc1 | inactive: 0.382%
22 | CCOc1ccccc1-n1ccnc(NCc2ccc(F)cc2)c1=O | inactive: 6.83%
23 | Cc1cccc(NC(=O)Nc2nnc(N(C)C3CCCCC3)s2)c1C | inactive: -0.253%
24 | Cc1nn(CC(=O)NCc2ccco2)c(=O)c2cc3ccccc3n12 | inactive: -0.815%

Row | SMILES | activity change, negative = inhibition
25 | O=C(CCC(=O)N1Cc2ccccc2Oc2ncccc21)Nc1ccc(Cl)cc1 | inactive: 1.88%
26 | COc1ccc(-c2nn(CC(=O)NC3CCCC3)c3c2cnc2ccc(F)cc23)cc1 | inactive: -3.87%
27 | CC1CCN(S(=O)(=O)c2ccc3c(c2)N(CC(=O)NCc2ccccc2)C(=O)CO3)CC1 | inactive: -2.36%
28 | COC(=O)c1ccc(Cl)cc1NC(=O)N1CC=C(c2c[nH]c3ccccc23)CC1 | inactive: -8.8%
29 | COc1ccc(N2CCN(C(=O)c3cc4c(-c5ccccc5F)nn(C)c4s3)CC2)cc1 | inactive: -7.06%
30 | O=C(Cn1ncc2c(=O)oc3ccccc3c21)Nc1cc(F)ccc1F | inactive: -0.816%
31 | O=C(CSc1nc2nccnc2c(=O)n1CCc1c[nH]c2ccccc12)Nc1ccccc1F | inactive: -14.8%
32 | Oc1ccccc1Nc1nc(-c2ccccc2)c2cc(Cl)ccc2n1 | inactive: -7.7%
33 | CCN(CC)c1nc(-c2ccc(C(C)(C)C)cc2)nc2ccccc12 | inactive: 15.3%
34 | Cc1cccc(OCCCC(=O)Nc2sc3c(c2C(N)=O)CCC(C)C3)c1 (stereo not given) | inactive: 11.2%
35 | COc1ccc2c(CNCC(C)c3ccccc3)c(C(=O)O)n(Cc3ccc(F)cc3Cl)c2c1 (stereo not given) | inactive: -4.51%
36 | COc1ccc(/C=C(\C#N)c2nc(-c3cc(Cl)ccc3OC)cs2)cc1 | inactive: 3.73%
37 | O=C1CS(=O)(=O)C2(C(=O)N(Cc3cccc(F)c3)c3ccccc32)N1c1ccccc1 (stereo not given) | inactive: 1.59%
38 | CCOc1ccc(CCNC(=O)CCc2c(C)nc3c(c(C)nn3-c3ccccc3)c2C)cc1OCC | inactive: 3.38%
39 | COc1cc(OC)c(NC(=O)c2c(C)oc3ncn(C)c(=O)c23)cc1Cl | inactive: -5.88%
40 | CCOc1ccc(NC(=O)c2ccc(NC(=O)CCS(=O)(=O)c3cccs3)cc2)cc1 | inactive: -5.2%
41 | Cc1ccc(C2CC(=O)N(Cc3ccccc3F)c3c2c(C)nn3-c2nc(C)cc(C)n2)cc1 (stereo not given) | inactive: -0.573%
42 | CCn1cc(C(=O)N2CCN(c3cccc(Cl)c3)CC2)c(=O)c2cc(S(=O)(=O)N3CCOCC3)ccc21 | inactive: -0.828%
43 | Cc1ccc(Cc2nc3ccccc3nc2SCC(=O)N2CCc3ccccc32)cc1 | inactive: 12.2%
44 | CN(C)CCNC(=O)C1CCN(c2nc3ccccc3[nH]2)CC1 | inactive: 8.16%
45 | COc1ccc(NC(=O)Nc2nnc(N3CCCCCC3)s2)cc1 | inactive: 0.684%
46 | Cc1c(NC(=O)c2cc([N+](=O)[O-])ccc2N2CCOCC2)cccc1-c1nc2ccccc2o1 | inactive: 0.458%
47 | Cc1ccc(NC(=O)c2nc(S(C)(=O)=O)ncc2N(Cc2ccccc2)Cc2ccco2)c(C)c1 | inactive: -1.44%
48 | COc1ccc(NC(=O)c2nnn(Cc3ccccc3C)c2N)c(OC)c1 | inactive: -10.4%

Row | SMILES | activity change, negative = inhibition
49 | Cc1ccc(C(=O)Nc2c(-c3ccccc3)nc3ccccn23)cc1C | inactive: 7.93%
50 | Cc1ccc(CNC(=O)Cn2c3ncccc3c(=O)n2-c2ccccc2)cc1 | inactive: 2.27%
51 | CC(C)CN(CCCNC(=O)c1cc(=O)[nH]c2ccc(S(=O)(=O)N3CCCCCC3)cc12)CC(C)C | inactive: 5.54%
52 | CC(=O)N1c2nc(C(C)C)nn2C2(CCCCC2)[C@@H]2CCCC[C@@H]21 | inactive: 0%
53 | CCOc1ccc2oc(=O)cc(CN3CCN(c4cc(C)ccc4C)CC3)c2c1 | inactive: 1.25%
54 | CC(=O)Nc1cccc(NC(=O)CN2C(=O)CCSc3ccccc32)c1 | inactive: -0.552%
55 | Cc1nc2nc(NC(=O)c3ccccc3F)[nH]n2c(=O)c1Cl | inactive: 0.458%
56 | Cc1cccc(N2CCN(C(=O)c3cccn4c(=O)c5cc(Cl)ccc5nc34)CC2C)c1 (stereo not given) | inactive: -12.9%
57 | O=C(CSc1nnc(-c2cccc(Cl)c2)o1)N1CCc2ccccc21 | inactive: 7.63%
58 | COc1cc(OC)c(NC(=O)C2=C(C)C(=O)OC23CCCCCC3)cc1Cl | inactive: -14.1%
59 | COc1ccc(C2C=C(c3cccc(OC)c3)Nc3c(C(=O)Nc4ccccc4)cnn32)cc1 (stereo not given) | inactive: 9.21%
60 | CCn1c2c(c(=O)n3ncc(C(=O)Nc4cc(Cl)ccc4C)c13)CN(Cc1ccc(OC)cc1)CC2 | inactive: 3.22%
61 | Cc1ccn2c(Nc3ccc(C(C)C)cc3)c(-c3cccs3)nc2c1 | inactive: 1.43%
62 | COc1ccccc1-c1nnc(SCC(=O)Nc2ccccc2F)o1 | inactive: -2.44%
63 | Cc1ccc(Cl)cc1NC(=O)CCC(=O)N1CC(C)Sc2ccccc21 (stereo not given) | inactive: 0%
64 | CCC1CN(C(=O)N2CCC(C(=O)N3CCN(c4cccc(C)c4C)CC3)CC2)c2ccccc2O1 (stereo not given) | inactive: -15%
65 | O=C(NCCc1ccc(Cl)cc1)C1CCN(c2ncnc3c2nc2n3CCCCC2)CC1 | inactive: -9.08%
66 | Cc1ccc(-n2c(=O)c3c4c(sc3n(CC(=O)c3ccc(Cl)cc3)c2=O)CCC4)cc1C | inactive: -1.31%
67 | CC(=O)N1c2ccc(S(=O)(=O)NCC3CCC(C(=O)Nc4ccc(C)cc4)CC3)cc2CC1C (stereo not given) | inactive: -4.36%
68 | CN(Cc1ccco1)C(=O)c1ccc2c(c1)N(Cc1ccccc1F)C(=O)c1ccccc1S2 | inactive: -9.13%
69 | CCc1ccc(NC(=O)CN2CCCN(Cc3cccc(Cl)c3)S2(=O)=O)cc1 | inactive: -3%
70 | COC(=O)c1cc2sc(C)cc2n1CC(=O)Nc1ccc(C)c(C)c1 | inactive: -8.32%
71 | COc1ccc2c(c1)c1c(c(=O)n(-c3ccc(F)c(Cl)c3)c(=O)n1CC(=O)N1CCCC1)n2C | inactive: -7.57%
72 | Cc1c2cnn(-c3ccccc3)c(=O)c2c(C)n1CC(=O)NCCc1ccc(Cl)cc1 | inactive: 0.21%

Row | SMILES | activity change, negative = inhibition
73 | CCOc1ccc(NC(=O)c2cc(S(=O)(=O)N3CCCCCC3)cn2C)cc1 | inactive: 1.37%
74 | COc1cc(CNC(=O)c2ccc3c(c2)N(C)C(=O)C2CCCCN32)cc(OC)c1OC (stereo not given) | inactive: -1.02%
75 | CC(=O)N1CCc2c(sc3c2c(=O)n(-c2ccccc2)c(=O)n3CC(=O)Nc2ccccc2)C1 | inactive: 1.37%
76 | O=C(O)c1ccc(CNCc2ccc(Cl)cc2)s1 | inactive: -2.5%
77 | CC(C)CN(C(=O)c1cccc(S(=O)(=O)N2CCCCC2)c1)C1CCS(=O)(=O)C1 (stereo not given) | inactive: -9.74%
78 | Cc1ccc2nc(Nc3cccc(Cl)c3C)c(-n3nc(C)cc3C)nc2c1 | inactive: 4.48%
79 | Cc1c(-c2nc(-c3ccc4c(c3)OCO4)no2)nnn1-c1ccc(Br)cc1F | inactive: 4.04%
80 | Cc1ccccc1NC(=O)Cn1c(SCC(=O)Nc2ccc(F)cc2)nc2ccccc21 | inactive: 0%
81 | CCOC(=O)c1ccc(NC(=O)Cn2c(=O)n(-c3ccc(C)cc3)c(=O)c3c2cnn3C)cc1 | inactive: 2.49%
82 | O=C(COc1ccccc1Cl)OCc1cc(=O)n2nc(-c3cccs3)sc2n1 | inactive: -0.899%
83 | Cc1ccc(CNC(=O)Cc2c(C)c3cc4c(C)coc4cc3oc2=O)cc1 | inactive: -17.4%
84 | CCOC(=O)c1c(NC(=O)c2nc(SCC)ncc2Cl)sc(C(C)=O)c1C | inactive: -3.71%
85 | CCOC(=O)c1ccc(N2CCN(c3cccc(OC)c3)CC2)c(NC(=O)Nc2ccc(OCC)cc2)c1 | inactive: -2.94%
86 | CCC(Cn1nnc2ccccc2c1=O)NC(=O)Nc1cccc(C)c1C (stereo not given) | inactive: -1.18%
87 | COc1ccc(C(=O)OCc2cc(=O)n3nc(-c4cccs4)sc3n2)cc1 | inactive: -1.11%
88 | CCC(=O)N1CCc2cc(Br)cc(S(=O)(=O)CCC(=O)N3CCN(c4cccc(C(F)(F)F)c4)CC3)c21 | inactive: 2.46%
89 | Cc1ccc(NC(=O)C2CCCN(c3nnc(C)c4c(C)n(-c5ccccc5)nc34)C2)c(Cl)c1 (stereo not given) | inactive: -0.0537%
90 | O=[N+]([O-])c1cc(-c2nc(-c3ccccc3)no2)ccc1N1CCCCC1 | inactive: 0.435%
91 | CC1=C(C(=O)Nc2ccccc2)C(c2ccncc2)n2nc(SCc3ccccc3Cl)nc2N1 (stereo not given) | inactive: -1.64%
92 | O=C(Cn1c(=O)n(Cc2ccco2)c(=O)c2ccccc21)Nc1ccc(Cl)cc1Cl | inactive: -1.83%
93 | O=C(c1ccc(Cl)cc1)N1CCC(c2ccncc2)CC1 | inactive: -2.15%
94 | CCN(CC)S(=O)(=O)c1ccc2nc(NC(=O)c3cccnc3)sc2c1 | inactive: 1.02%
95 | COc1cc(-c2noc(-c3ccc(N4CCN(C)CC4)c([N+](=O)[O-])c3)n2)cc(OC)c1OC | inactive: 0.858%
